Displacement data for 112 molecules are collected here from PubChem BioAssay AID1240 (Sanford-Burnham Center for Chemical Genomics, 2008).

Molecules are shown by their SMILES. The whole screen tested about 50,000 compounds, of which about 800 (1.6%) showed an effect of 50% or more. This is one part of the list.

The target of this experiment is Bcl-2-like protein 10 (Homo sapiens) (UniProt Q9HD36). The experiment in a line: TR3 peptide-Bcl-B binding displacers, biochemical primary FP assay, phenotype converters (AID 1240).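 Note: 0% = Bcl-B with tracer peptide and DMSO and 100% = tracer peptide lacking Bcl-B.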 Conditions: GST-Bcl-B / FITC-TR3 peptide fluorescence polarization; stronger effect = higher value; compound at 3.75 mg/L. (In general: Fluorescence polarisation rises when a labelled molecule tumbles more slowly, as on binding a larger partner.)
Sequence of UniProt Q9HD36 (Q9HD36 whole entry, looked up): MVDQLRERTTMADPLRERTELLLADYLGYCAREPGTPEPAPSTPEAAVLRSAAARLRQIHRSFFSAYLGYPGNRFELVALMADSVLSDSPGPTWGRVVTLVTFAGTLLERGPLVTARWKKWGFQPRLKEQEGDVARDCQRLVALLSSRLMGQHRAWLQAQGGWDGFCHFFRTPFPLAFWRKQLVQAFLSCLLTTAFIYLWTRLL
On to `COC(=O)c1sccc1NC(=O)c1ccc(Br)cc1`, for which the displacement worked out at 2.6%.

`CC(C)c1ccc(NC(=O)C(=O)NCCO)cc1`: the displacement was 9.1%.

Regarding `Clc1ccccc1-c1noc(COc2ccc(Br)cc2)n1`, the displacement came out at 5.1%.

On to `COc1cccc(C2Nc3ccc4ccccc4c3C3=C2C(=O)CC(C)(C)C3)c1OCC(=O)O` (configuration not stated), for which the displacement turned out to be 30%.

With `O=C1N2CN(C3CCCCC3)CN=C2SC1(CO)CO`, the displacement is -0.4%.

For `Fc1cnc(NN=Cc2cccs2)nc1N1CCOCC1`, the displacement was -16.8%.

Take `O=c1oc2cc(OCc3c(F)c(F)c(F)c(F)c3F)ccc2cc1-c1ccccn1`: the displacement came out at 10.5%.

On to `O=C(Nc1ccc(Cl)cc1)Nc1nnc(Cc2ccc(F)cc2)s1`, for which the displacement came out at 2.3%.

Turning to `COC(=O)c1c(-c2ccc(Cl)cc2)csc1N`, the displacement stood at 2.1%.

As to `O=C1ON=C(c2ccccc2)/C1=C\c1cccc(O)c1`, the displacement is -14.3%.

For the molecule `COC(=O)C1=C(C)N(c2ccc(Cl)cc2)C(=O)/C1=C\c1ccco1`, the displacement is 13.7%.

As for `COc1cc(OC)cc(C(=O)Nc2ccc3oc(-c4ccc(OC)c(Br)c4)nc3c2)c1`, the displacement was -3.3%.

For `CCOC(=O)C1=C(C)OC(N)=C(C#N)C1c1ccc(OC)cc1OC` (configuration not stated), the displacement is 4.1%.

Turning to `O=C(Nc1ccc(-c2ccccc2)cc1)c1ccc(Br)cc1`, the displacement is -3.5%.

In the case of `Cc1ccc(NS(=O)(=O)c2cccs2)cc1C`, the displacement turned out to be 1.7%.

On to `C=CCOC(=O)C1=C(C)NC(=O)NC1c1ccc(Cl)cc1` (configuration not stated), for which the displacement turned out to be 0.6%.

In the case of `CCOc1ccc(C(=O)Nc2ccccc2C(=O)O)cc1`, the displacement was found to be 9.2%.

As to `COc1cc(C2Nc3ccccc3C(=O)N2c2ccc(F)cc2)cc(OC)c1OC` (configuration not stated), the displacement is 9.6%.

As for `COc1ccc(CNC(=O)CN(c2ccc(C)cc2)S(=O)(=O)c2ccc(F)cc2)cc1`, the displacement is -2.3%.

As to `Cc1ccc(NC(=S)NC(=O)c2cccnc2)cc1Br`, the displacement is -6.8%.

As to `O=C(N/N=C/c1ccc(Br)cc1)c1cc(C2CC2)[nH]n1`, the displacement was -18.8%.

In the case of `CCc1nnc(NS(=O)(=O)c2ccc(N/C=C\C(=O)c3ccc4ccccc4c3)cc2)s1`, the displacement came to 12%.

On to `CC(C)Cn1ccc(=O)n(CC(C)C)c1=O`, for which the displacement was found to be 10.7%.

Consider `CN(C)c1ccc(-n2nc3ccc4ccccc4c3n2)cc1`, for which the displacement turned out to be 3.4%.

On to `CC(C)CC(NC(c1ccccc1)(c1ccccc1)c1ccccc1)C(=O)O` (configuration not stated), for which the displacement came to 8.9%.

As for `O=C(Nc1cccc2nsnc12)c1cc2ccccc2o1`, the displacement was found to be 23.9%.

With `CCN1C(=O)c2cccc3c(S(=O)(=O)N(C)C)ccc1c23`, the displacement stood at 6.6%.

As for `O=[N+]([O-])c1ccccc1NN=C1CCCC1`, the displacement is -6%.

As to `O=C(O)c1ccc(-c2nnc(-c3cccc(Br)c3)o2)cc1`, the displacement is -22.5%.

Consider `CCOc1cc(/C=N/n2c(C)nnc2C)ccc1O`, for which the displacement is 6.9%.

Regarding `Cc1ccc(Cl)cc1NC(=O)C(=O)NCCCO`, the displacement is -7.4%.

Consider `COc1ccccc1N1C(=O)NC(=O)/C(=C\c2ccc(Br)cc2)C1=O`, for which the displacement turned out to be 4.4%.

Regarding `Clc1cccc(/C=N/N=C/c2cccc(Cl)c2Cl)c1Cl`, the displacement was -1.5%.

Regarding `O=C(c1ccc(I)cc1)N1CCOCC1`, the displacement was determined as 11.8%.

As for `Cc1ccc(SCCNS(C)(=O)=O)cc1`, the displacement is 3.9%.

For the molecule `Cc1ccc(-c2cc(NC(=O)c3ccc(F)cc3)n[nH]2)cc1`, the displacement amounted to 14.7%.

As for `COC(=O)C1=NNC2C(=O)N(c3cccc(C(F)(F)F)c3)C(=O)C12` (configuration not stated), the displacement was determined as 0.8%.

Take `c1ccc(-c2ccc(-c3nc(-c4cccnc4)no3)cc2)cc1`: the displacement is -2.8%.

For the molecule `COc1cc(C(=O)N/N=C(\C)c2ccc(NC(=O)c3cccs3)cc2)cc(OC)c1OC`, the displacement is -7.9%.

As for `O=C(COc1ccc(Br)cc1)Nc1ccc(NC(=O)c2ccccc2)cc1`, the displacement is -3.3%.

Consider `Cc1cccc(NC(=O)c2cc(-c3ccc(Br)cc3)nc3ccccc23)n1`, for which the displacement turned out to be 13.6%.

On to `COc1cc(/C=C2\C(=O)N(c3ccc(S(N)(=O)=O)cc3)N=C2C)ccc1O`, for which the displacement was -32.2%.

As for `CCCc1ccc(OCC(=O)N/N=C\c2cc(OC)ccc2O)cc1`, the displacement is 0.5%.

`Cc1ccc(OCCOCCN2CCC(C)CC2)c(Cl)c1`: the displacement is -13.1%.

For `CCCCc1c(C)nc2ccc(OC)cc2c1Cl`, the displacement was -5.7%.

For `Cc1cccc(N2C(=O)/C(=C/c3ccc4c(c3)OCO4)SC2=S)c1C`, the displacement was 21.8%.

On to `Cc1cc(=O)oc2cc(OCC(=O)c3ccccc3)cc(OCC(=O)c3ccccc3)c12`, for which the displacement was -3.1%.

Regarding `Cc1ccc(C(=O)N/C(=C\c2cccs2)C(=O)N2CCCC2)cc1`, the displacement amounted to 2.5%.

As to `COc1ccc(N/C(N)=N\c2nc(C)cc(C)n2)c(OC)c1`, the displacement is -8.7%.

Regarding `CC1(c2ccccc2)C(C#N)=C(N)OC2=C1C(=O)CCC2` (configuration not stated), the displacement is -1%.

Regarding `O=C1c2ccccc2C(=O)c2cc(Sc3ccccc3)ccc21`, the displacement came to 12.2%.

Consider `N=C1S/C(=C\c2ccc(-c3ccccc3[N+](=O)[O-])o2)C(=O)N1c1ccc2c(c1)OCO2`, for which the displacement is -5.3%.

For the molecule `Cc1ccc(N=C2NC(=O)/C(=C/c3ccccc3F)S2)cc1`, the displacement was -5.1%.

Consider `CC(=O)Nc1cccc(OC2=NS(=O)(=O)c3ccccc32)c1`, for which the displacement turned out to be 1.8%.

`COc1cccc(N2C(=O)CC(N3CCN(C(c4ccccc4)c4ccccc4)CC3)C2=O)c1` (configuration not stated): the displacement stood at 5.9%.

Regarding `CCCCOc1cccc(C(=O)Nc2ccc(CC)cc2)c1`, the displacement was -5.2%.

Consider `Cc1ccc(Cl)cc1N1CCN(C(=O)C2C3CCC(C3)C2C(=O)O)CC1` (configuration not stated), for which the displacement is -2.7%.

For `COc1cccc(C(=O)NNC(=O)c2ccc(F)cc2)c1`, the displacement was -9.7%.

For `O=C1CC(c2ccccc2)CC2=C1C(c1cccc([N+](=O)[O-])c1)Nc1ccc(C(=O)c3ccccc3)cc1N2` (configuration not stated), the displacement stood at 3.6%.

`Cc1ccc(N(CC(=O)NCc2ccccc2)S(C)(=O)=O)cc1Cl`: the displacement was -7.7%.

`Clc1cccc(CN2CCN(Cc3ccccn3)CC2)c1`: the displacement is -22%.

Take `COc1ccc(-c2nnc(N)s2)cc1OC`: the displacement was 8.6%.

For the molecule `COc1cc(C=Nc2ccc(N=Cc3cc(Br)c(O)c(OC)c3)cc2)cc(Br)c1O`, the displacement worked out at 16.3%.

As to `COC(=O)c1ccc(C2Nc3ccccc3NC3=C2C(=O)CC(c2ccccc2)C3)cc1` (configuration not stated), the displacement is -17.5%.

Regarding `COc1ccc(C2=C/C(=C\c3cccc([N+](=O)[O-])c3)C(=O)O2)cc1`, the displacement was 2.7%.

`COc1ccc(/C=C/C(=O)c2ccc([N+](=O)[O-])cc2)cc1`: the displacement came out at 105%.

`CC1CCc2c(sc(NC(=O)C3CC4CCC3C4)c2C(=O)OC(C)C)C1` (configuration not stated): the displacement was found to be 8.9%.

Consider `COc1ccc(C2=NN(CN3C(=O)C(=O)c4ccccc43)C(c3ccccc3)C2)cc1` (configuration not stated), for which the displacement is 1.4%.

Regarding `O=c1/c(=C/c2cc([N+](=O)[O-])ccc2Cl)sc2nc3ccccc3n12`, the displacement is -7.5%.

As to `COc1cc(NC(=O)c2cc([N+](=O)[O-])ccc2Br)ccc1NC(=O)c1ccco1`, the displacement is 26.5%.

In the case of `COc1ccc(Cl)cc1NC(=O)COc1cccc(C)c1`, the displacement was -8.5%.

As for `Cc1ccc(S(=O)(=O)N=C(Nc2ccccn2)c2ccccc2)cc1`, the displacement was 11.1%.

Regarding `CN(C)S(=O)(=O)NCC(=O)NN=Cc1ccncc1`, the displacement worked out at 3.8%.

For `C=CCn1c(COc2ccc3ccccc3c2)nc2ccccc21`, the displacement was -1.6%.

Take `Cc1ccc(/C(O)=C2\C(=O)C(=O)N(c3ccc(O)cc3)C2c2ccccc2F)cc1` (configuration not stated): the displacement was -4.1%.

With `O=C(N/N=C/c1cccs1)C1CC(=O)N(c2ccc(Cl)cc2)C1` (configuration not stated), the displacement is -9.3%.

As for `COc1cc2ccccc2cc1C(=O)Nc1cccc([N+](=O)[O-])c1`, the displacement is 9.6%.

On to `COc1ccc(/C=C2\C=C(c3ccc(C)cc3)OC2=O)cc1[N+](=O)[O-]`, for which the displacement amounted to 6.6%.

For `CCOC(=O)c1c(-c2ccc(C)cc2C)csc1NC(=S)NC(=O)c1ccccc1`, the displacement amounted to 1.3%.

As to `Nc1nnc(Cc2ccc(F)cc2)s1`, the displacement amounted to 3.5%.

As to `CCCN(CCC)C(=O)c1ccccc1Br`, the displacement stood at 1.4%.

`CCOC(=O)CCNC(=O)c1ccccc1Br`: the displacement turned out to be 13.2%.

On to `CCOC(=O)c1ccc(NC(=O)C(CC)Oc2ccccc2)cc1` (configuration not stated), for which the displacement was -1.3%.

`Cc1ccc(NC(=O)/C=C/c2ccc([N+](=O)[O-])cc2)cc1C`: the displacement is -6.8%.

In the case of `CCOC(=O)c1c(-c2ccccc2)csc1NC(=O)COc1ccccc1C`, the displacement was -3.9%.

Regarding `Cc1ccc(S(=O)(=O)Nc2ccc(S(=O)(=O)N3CCCCC3)cc2)cc1[N+](=O)[O-]`, the displacement was -4%.

On to `Cc1onc(-c2c(Cl)cccc2Cl)c1C(=O)Nc1ccc2c(c1)OCCO2`, for which the displacement worked out at 7.4%.

`Cc1nnc(N2C(=O)c3ccc([N+](=O)[O-])cc3C2=O)s1`: the displacement is -1.6%.

Consider `O=[N+]([O-])c1ccc(C=NCC2OCCc3ccccc32)cc1` (configuration not stated), for which the displacement is -4.4%.

Regarding `Cc1ccc(N2C(=O)C(Cl)=C(NCCO)C2=O)c(C)c1`, the displacement was 9.2%.

Regarding `CCOC(=O)C1=C(C)N=c2s/c(=C/c3ccc(C(=O)OC)cc3)c(=O)n2C1c1ccc(OC(C)=O)cc1` (configuration not stated), the displacement worked out at 9.3%.

Take `Cc1cc(/C=C2/NC(=O)NC2=O)c(C)n1-c1ccc(Cl)cc1`: the displacement is 10.7%.

As for `O=C(COc1ccc(Cl)cc1)NNC(=O)C1COc2ccccc2O1` (configuration not stated), the displacement is -5.2%.

`COC(=O)C1=C(C)NC(C)=C(C(=O)OC)C1c1cccc(Br)c1`: the displacement came out at 7.5%.

As for `COc1ccccc1NCC(=O)n1nc(C)cc1C`, the displacement was -6.9%.

As for `CCOC(=O)C1=C(C)NC(SCC(N)=O)=C(C#N)C1c1cccc([N+](=O)[O-])c1` (configuration not stated), the displacement amounted to 8.4%.

In the case of `Cc1ccc(OCC(=O)Nc2ccccc2CO)cc1`, the displacement is -9.2%.

As for `COc1cc(/C=N/NC(=O)Cc2n[nH]c(=O)[nH]c2=O)cc([N+](=O)[O-])c1O`, the displacement was -7.4%.

Turning to `CC(Sc1nnc(-c2cccnc2)o1)C(=O)c1ccccc1` (configuration not stated), the displacement was found to be 7.9%.

On to `CCOc1ccc(N(CC(=O)Nc2cccc(C(F)(F)F)c2)S(C)(=O)=O)cc1`, for which the displacement was -4.2%.

With `COc1ccccc1C(=O)NNC1=CC(=O)CC(C)(C)C1`, the displacement turned out to be 14.2%.

As to `COc1cc(C2CC(=O)Nc3c2ccc2ccccc32)ccc1OC(=O)c1ccc(Cl)cc1` (configuration not stated), the displacement is -6%.

In the case of `OC1(C(F)(F)F)CC(c2ccccc2)=NO1` (configuration not stated), the displacement was -5.8%.

As for `Cc1cc(C=O)c(C)n1-c1ccc(Cl)cc1`, the displacement was found to be 7.7%.

As for `CC(=O)c1ccc(-n2c(C)ccc2-c2ccccc2)cc1`, the displacement was determined as 9.2%.

On to `Cc1c(NC(=O)/C=C/c2cn(-c3ccccc3)nc2-c2ccc(F)cc2)c(=O)n(-c2ccccc2)n1C`, for which the displacement is 12.2%.

For the molecule `O=[N+]([O-])c1ccc(Oc2cc(C(F)(F)F)ccc2Cl)cc1O`, the displacement was found to be 6.9%.

`CCCCOC(=O)c1ccc(NC(=S)NC(NC(=O)OCC)C(Cl)(Cl)Cl)cc1` (configuration not stated): the displacement was -1.1%.

Take `CC(C)CNC(=O)C(=O)NCc1ccc(Cl)cc1Cl`: the displacement is 8.2%.

As to `Cc1ccc(NCCC(=O)c2cccs2)cc1C`, the displacement was -16.2%.

In the case of `COC(=O)C1=C(N)Oc2n[nH]c(C)c2C1c1ccc(Br)cc1` (configuration not stated), the displacement was -3.6%.

Turning to `O=C(c1sc2ccccc2c1Cl)N1CCN(Cc2ccccc2)CC1`, the displacement was found to be 2.6%.
